Results are given in words; binding and its absence hold for the method and conditions named. Binding seen in cells or lysates may run through a third protein. Some entries that bind do so weakly or less than the wild type. For some of these results: Tags and fused reporters may be left off the sequences shown. Each block holds one substance with its values, some of them ahead of it.
How the values were obtained:
MBP-TAp73α FL (human) = target: T1, MBP-TAp73α FL (human) (UniProt O15350); test: pull-down; MBP fusions on amylose resin incubated with clarified lysates of HEK293T expressing 3xFlag-E2F4, 2 h at 4°C, PD buffer (20 mM Tris pH 8.0, 150 mM NaCl, 2 mM DTT), elution with 20 mM maltose, anti-Flag Western blot; only the target purified
T1 sequence: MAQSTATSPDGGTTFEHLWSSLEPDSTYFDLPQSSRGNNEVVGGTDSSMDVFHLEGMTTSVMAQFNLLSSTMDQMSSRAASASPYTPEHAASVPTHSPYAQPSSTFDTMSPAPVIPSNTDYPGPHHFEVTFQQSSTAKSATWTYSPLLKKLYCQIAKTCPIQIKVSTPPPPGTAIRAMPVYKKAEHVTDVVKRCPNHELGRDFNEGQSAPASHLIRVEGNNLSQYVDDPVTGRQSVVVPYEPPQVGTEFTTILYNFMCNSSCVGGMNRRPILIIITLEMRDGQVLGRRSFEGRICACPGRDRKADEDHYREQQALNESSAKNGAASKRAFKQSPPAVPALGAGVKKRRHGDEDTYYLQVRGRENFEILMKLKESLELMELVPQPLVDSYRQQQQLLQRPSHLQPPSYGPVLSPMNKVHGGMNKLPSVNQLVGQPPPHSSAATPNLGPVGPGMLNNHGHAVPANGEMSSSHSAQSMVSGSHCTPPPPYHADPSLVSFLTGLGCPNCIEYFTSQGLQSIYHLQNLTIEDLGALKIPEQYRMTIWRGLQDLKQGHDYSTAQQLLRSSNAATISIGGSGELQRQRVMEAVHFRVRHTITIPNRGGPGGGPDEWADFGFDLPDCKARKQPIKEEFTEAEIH

Chains of the proteins cited; added tags and fusions are not shown. Lines headed by an entry give the natural chain unless they say otherwise; changes in a name come on top.
UniProt P03129: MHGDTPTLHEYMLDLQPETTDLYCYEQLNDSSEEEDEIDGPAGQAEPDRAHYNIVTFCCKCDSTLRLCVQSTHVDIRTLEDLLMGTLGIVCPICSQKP
UniProt Q16254: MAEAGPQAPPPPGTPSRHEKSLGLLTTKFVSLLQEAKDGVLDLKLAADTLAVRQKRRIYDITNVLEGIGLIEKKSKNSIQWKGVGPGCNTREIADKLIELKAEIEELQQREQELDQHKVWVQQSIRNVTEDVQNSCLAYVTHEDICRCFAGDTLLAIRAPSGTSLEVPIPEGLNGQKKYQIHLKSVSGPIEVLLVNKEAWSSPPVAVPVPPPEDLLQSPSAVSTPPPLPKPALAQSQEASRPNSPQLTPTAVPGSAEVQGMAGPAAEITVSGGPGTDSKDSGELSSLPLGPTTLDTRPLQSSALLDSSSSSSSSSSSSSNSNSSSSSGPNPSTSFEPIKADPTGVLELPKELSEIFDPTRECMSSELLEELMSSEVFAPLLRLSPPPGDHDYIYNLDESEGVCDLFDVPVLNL
UniProt Q14186: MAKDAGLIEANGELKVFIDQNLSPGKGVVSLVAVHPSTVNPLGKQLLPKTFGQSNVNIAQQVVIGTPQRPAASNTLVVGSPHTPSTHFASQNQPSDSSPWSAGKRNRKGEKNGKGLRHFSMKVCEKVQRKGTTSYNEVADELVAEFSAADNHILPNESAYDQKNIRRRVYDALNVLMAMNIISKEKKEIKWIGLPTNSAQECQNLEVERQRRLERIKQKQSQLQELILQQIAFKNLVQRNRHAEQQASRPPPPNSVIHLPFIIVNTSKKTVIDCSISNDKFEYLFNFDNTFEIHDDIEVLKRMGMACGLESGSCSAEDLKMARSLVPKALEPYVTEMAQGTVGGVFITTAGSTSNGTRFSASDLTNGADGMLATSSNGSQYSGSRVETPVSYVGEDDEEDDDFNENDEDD
UniProt Q08999: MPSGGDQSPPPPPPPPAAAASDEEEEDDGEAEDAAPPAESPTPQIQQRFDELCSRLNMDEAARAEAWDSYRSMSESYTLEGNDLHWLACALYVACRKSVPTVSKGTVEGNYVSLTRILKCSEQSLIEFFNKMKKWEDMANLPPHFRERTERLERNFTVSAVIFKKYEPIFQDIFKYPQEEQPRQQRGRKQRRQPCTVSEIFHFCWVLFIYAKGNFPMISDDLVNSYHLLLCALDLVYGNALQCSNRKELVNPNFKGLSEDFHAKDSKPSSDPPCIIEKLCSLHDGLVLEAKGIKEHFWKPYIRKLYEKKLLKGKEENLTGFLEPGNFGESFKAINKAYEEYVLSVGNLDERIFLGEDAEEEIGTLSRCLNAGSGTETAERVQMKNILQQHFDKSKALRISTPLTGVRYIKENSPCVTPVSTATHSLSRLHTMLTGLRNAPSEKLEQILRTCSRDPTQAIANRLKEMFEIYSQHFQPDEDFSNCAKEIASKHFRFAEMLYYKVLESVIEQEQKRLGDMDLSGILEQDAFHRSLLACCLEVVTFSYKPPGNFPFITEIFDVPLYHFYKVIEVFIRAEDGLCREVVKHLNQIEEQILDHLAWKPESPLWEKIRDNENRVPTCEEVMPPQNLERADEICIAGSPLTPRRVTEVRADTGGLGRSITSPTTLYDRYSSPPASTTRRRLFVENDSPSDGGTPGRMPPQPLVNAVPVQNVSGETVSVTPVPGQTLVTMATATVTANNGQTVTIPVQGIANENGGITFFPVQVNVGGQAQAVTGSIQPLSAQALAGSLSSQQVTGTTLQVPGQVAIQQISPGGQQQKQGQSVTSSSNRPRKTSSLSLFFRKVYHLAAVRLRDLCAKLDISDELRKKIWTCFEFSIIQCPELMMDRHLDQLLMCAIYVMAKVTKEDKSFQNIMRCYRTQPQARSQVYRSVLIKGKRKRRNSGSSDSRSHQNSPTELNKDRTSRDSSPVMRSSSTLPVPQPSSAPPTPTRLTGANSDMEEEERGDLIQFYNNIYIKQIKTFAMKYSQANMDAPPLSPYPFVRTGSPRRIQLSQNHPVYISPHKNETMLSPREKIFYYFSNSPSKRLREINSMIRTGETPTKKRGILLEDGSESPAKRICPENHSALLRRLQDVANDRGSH

MBP-ΔNp73α FL (human) = target: T2, MBP-ΔNp73α FL (human) (UniProt O15350); test: as above
T2 sequence: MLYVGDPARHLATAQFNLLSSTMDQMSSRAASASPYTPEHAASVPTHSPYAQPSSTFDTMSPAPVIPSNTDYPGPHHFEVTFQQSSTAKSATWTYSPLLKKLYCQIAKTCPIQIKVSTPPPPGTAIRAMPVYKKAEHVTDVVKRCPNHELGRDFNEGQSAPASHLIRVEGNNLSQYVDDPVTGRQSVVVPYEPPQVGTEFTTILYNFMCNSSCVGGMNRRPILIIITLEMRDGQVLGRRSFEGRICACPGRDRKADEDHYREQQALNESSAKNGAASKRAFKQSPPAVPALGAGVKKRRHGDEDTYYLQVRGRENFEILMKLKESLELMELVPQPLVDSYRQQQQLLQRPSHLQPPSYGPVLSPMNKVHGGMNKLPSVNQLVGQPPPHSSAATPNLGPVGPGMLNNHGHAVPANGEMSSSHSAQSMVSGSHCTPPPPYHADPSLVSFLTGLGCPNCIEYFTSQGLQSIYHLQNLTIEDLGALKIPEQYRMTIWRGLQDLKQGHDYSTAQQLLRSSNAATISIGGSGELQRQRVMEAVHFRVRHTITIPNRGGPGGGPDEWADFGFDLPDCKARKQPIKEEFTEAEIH

Gluc1-TAp63α (human) = target: T3, Gluc1-TAp63α (human) (UniProt Q9H3D4); test: split reporter; Gaussia princeps protein complementation assay (GPCA): Gluc1 and Gluc2 N-terminal fusions co-transfected in HEK293T, luminescence of lysates after 48 h as normalized luminescence ratio (NLR); pairs count as interacting if NLR is above 5
T3 sequence: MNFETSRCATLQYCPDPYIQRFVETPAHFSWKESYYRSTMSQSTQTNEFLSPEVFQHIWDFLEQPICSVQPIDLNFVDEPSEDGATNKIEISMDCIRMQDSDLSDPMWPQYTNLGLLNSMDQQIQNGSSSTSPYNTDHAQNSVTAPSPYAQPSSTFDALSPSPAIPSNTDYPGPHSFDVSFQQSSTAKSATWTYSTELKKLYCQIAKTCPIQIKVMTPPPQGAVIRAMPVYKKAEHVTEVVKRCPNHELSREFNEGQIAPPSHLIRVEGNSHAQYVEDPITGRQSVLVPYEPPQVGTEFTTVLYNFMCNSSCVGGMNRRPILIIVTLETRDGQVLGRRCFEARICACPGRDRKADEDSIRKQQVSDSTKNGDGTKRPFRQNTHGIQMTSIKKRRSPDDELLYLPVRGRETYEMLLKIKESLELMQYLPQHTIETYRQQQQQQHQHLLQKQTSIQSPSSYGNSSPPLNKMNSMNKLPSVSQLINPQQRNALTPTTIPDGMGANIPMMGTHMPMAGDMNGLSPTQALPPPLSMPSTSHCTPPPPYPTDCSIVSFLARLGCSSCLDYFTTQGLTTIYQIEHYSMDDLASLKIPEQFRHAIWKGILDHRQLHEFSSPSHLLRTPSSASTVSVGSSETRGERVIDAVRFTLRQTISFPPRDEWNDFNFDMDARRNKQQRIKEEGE

Gluc1-ΔNp73α FL (human) = Gluc1-ΔNp73α FL (human) (UniProt O15350); test: as above
[1] = target: T4, Gluc1-ΔN(1 to 348) (human) (UniProt O15350); test: as above
T4 sequence: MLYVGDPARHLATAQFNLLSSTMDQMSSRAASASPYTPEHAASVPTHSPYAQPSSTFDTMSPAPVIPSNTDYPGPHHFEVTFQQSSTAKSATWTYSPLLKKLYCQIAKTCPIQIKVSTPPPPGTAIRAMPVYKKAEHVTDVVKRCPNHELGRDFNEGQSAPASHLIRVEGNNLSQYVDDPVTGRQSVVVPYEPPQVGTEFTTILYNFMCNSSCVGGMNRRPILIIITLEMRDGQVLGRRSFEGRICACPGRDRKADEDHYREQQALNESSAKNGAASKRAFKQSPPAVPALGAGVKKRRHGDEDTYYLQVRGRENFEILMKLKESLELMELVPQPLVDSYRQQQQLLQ

[2] = target: T5, Gluc1-ΔN(14 to 348) (human) (UniProt O15350); test: as above
T5 sequence: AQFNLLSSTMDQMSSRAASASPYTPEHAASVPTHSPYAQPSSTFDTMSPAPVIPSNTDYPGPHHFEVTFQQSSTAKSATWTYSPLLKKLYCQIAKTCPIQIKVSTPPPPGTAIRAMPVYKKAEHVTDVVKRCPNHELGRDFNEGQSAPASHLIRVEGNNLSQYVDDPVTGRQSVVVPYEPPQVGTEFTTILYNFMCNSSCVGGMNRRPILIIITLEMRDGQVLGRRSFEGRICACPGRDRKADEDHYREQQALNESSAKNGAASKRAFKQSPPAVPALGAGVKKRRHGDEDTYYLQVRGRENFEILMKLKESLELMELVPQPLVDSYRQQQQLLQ

[3] = target: T6, Gluc1-ΔN(262 to 348) (human) (UniProt O15350); test: as above
T6 sequence: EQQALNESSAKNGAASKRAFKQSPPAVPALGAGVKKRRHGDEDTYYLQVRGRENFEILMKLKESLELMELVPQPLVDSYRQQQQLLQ

[4] = target: Gluc1-16.E7 (human papillomavirus type 16) (UniProt P03129); test: as above
HA-ΔNp73α (human) [5] = target: T7, HA-ΔNp73α (human) (UniProt O15350); test: co-IP; nuclear extracts of 38HK stably expressing HA-ΔNp73α, fractionated by size exclusion chromatography (Superose 6 10/300 increase), fractions precipitated with anti-HA agarose beads
T7 sequence: T2 sequence

HA-ΔNp73α (human) [6] = target: T7, HA-ΔNp73α (human); test: co-IP; nuclear extracts of 38HK stably expressing HA-ΔNp73α, 50 to 10% sucrose gradient, fractions precipitated with anti-HA agarose beads, Western blot; also after scramble, E2F4 or E2F4 plus E2F5 siRNAs
[7] = target: T8, endogenous ΔNp73α (HNC-136) (human (endogenous in HNC-136)) (UniProt O15350); test: co-IP; nuclear extracts of HNC-136 cells, sucrose gradient, fractions precipitated with anti-p73 antibody-coupled beads, Western blot of endogenous proteins
T8 sequence: T2 sequence

binding (MBP-TAp73α FL (human)): binds | binding (MBP-ΔNp73α FL (human)): binds
Substance: 3xFlag-E2F4 FL (from UniProt Q16254 1-413)

binding (Gluc1-TAp63α (human)): no binding | binding (Gluc1-ΔNp73α FL (human)): no binding
Substance: Gluc2-DP1 (from UniProt Q14186 1-410)

binding (Gluc1-TAp63α (human)): no binding | binding [1]: binds | binding [2]: binds | binding [3]: binds
Substance: Gluc2-E2F4 FL (from UniProt Q16254 1-413)

binding (Gluc1-ΔNp73α FL (human)): binds
Substance: Gluc2-E2F(1 to 196) (from UniProt Q16254 1-196) (domain or fragment)

binding (Gluc1-ΔNp73α FL (human)): binds
Substance: Gluc2-E2F(89 to 196) (from UniProt Q16254 89-196) (domain or fragment)

Substance: Gluc2-p130 (from UniProt Q08999 1-1139)
binding [4]: binds | binding (Gluc1-TAp63α (human)): no binding | binding (Gluc1-ΔNp73α FL (human)): no binding

binding (HA-ΔNp73α (human) [5]): binds | binding (HA-ΔNp73α (human) [6]): binds
Substance: endogenous E2F4 (38HK) (from UniProt Q16254 1-413)

binding [7]: binds
Substance: endogenous E2F4 (HNC-136) (from UniProt Q16254 1-413)

Reference: paper PMC10117100
